Reference: the supplement of paper PMC10126150
Values marked as one replicate rest on one cluster of the flow cell; about a third of the high ones do not repeat.

Tested on: ATP
Assay: switch fluorescence ratio, 500 uM ATP over buffer (Cy3 cluster intensity, sum of 5 cycles each) (fold (ratio)); higher = stronger signal-on switching upon ATP binding; sequences stand for … in TCGTCGGCAGCGTCAGATGTGTATAAGAGACAGTTTTTTTTTTTTTTTTTTTTTTTTT…TC
Conditions: aptamer strand: ATP DNA aptamer (quencher-CACCTGGGGGAGTATTGCGGAGGAAGG + anchor), 100 nM annealed; ATP concentration: 500 uM; one replicate
Method in brief: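 Values give the fluorescence ratio for each switch-domain sequence, averaged from per-cluster ratios of summed target-cycle to summed buffer-cycle Cy3 intensity. The Cy3-labelled switching-strand clusters sat on a modified Illumina MiSeq flow-cell, were annealed to 100 nM quencher-labelled ATP aptamer, and were imaged in selection buffer, then after 15 min with 500 uM ATP at 22 °C. Five cycles ran with NaOH stripping and re-annealing between them, and clusters outside 100-1000 RFU were excluded.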
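Note: ATP exposure 15 min at 22 °C before imaging.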

Sequence | switch fluorescence ratio
CATCATGGAT | 1.04
CGTGAGAGAT | 0.981
CTCAATCTGG | 0.981
CCTTGGTTTC | 1.09
GCGCCAACCG | 0.988
TGTTGATCTT | 0.975
CAGGCTATGC | 0.941
TTACATGAGT | 1.02
CCACTATACA | 1.32
GTTGTTATCC | 0.994
GAAGCTCTGT | 1.04
TCATGAAAGG | 0.997
CTCTGTACTT | 1.14
GTACAAAATA | 0.993
GGTACGATTA | 1.08
GCGTACGCTT | 0.96
CCAAGTCTTA | 1.02
TGAGGATTCT | 1.01
ACTTTCGCT | 1.07
TTGACACGCG | 0.966
TCGGTGTGAC | 1.01
AGTAATTTTC | 1
TATTAGTGT | 0.978
GGCTAAAGTG | 0.961
TGAGTTAATT | 0.982

Sequence | switch fluorescence ratio
ACAGGTTGAG | 1.03
AACCTGCTTG | 0.997
GGCTGCTATT | 1.01
TCATAATCAA | 0.99
CCATAATAAC | 1.21
GTGATAAGGA | 0.972
AGGAGCTAAT | 1.02
TATAGTGGAC | 1.02
TTGAGTGAAG | 1.01
GCTACAGCTC | 1.02
CATAGCCAGG | 1.21
TCGGGTTTTG | 0.994
CAGTGGCAG | 0.972
TGGATGACAT | 0.997
AAACCAAGAA | 0.974
TAAACTGGTG | 1.15
CAGCCTATTA | 0.995
TTTGGCATTT | 0.95
CGGCTCAATC | 1.99
AACAAGAACG | 1.06
GTAAAAGATA | 1.01
CCAACTTAGT | 1
GCTAAAATCA | 0.986
TACAAGAGTA | 1.03
ACAGCATCGA | 1.01

Sequence | switch fluorescence ratio
ACCTTTTCCC | 1.24
CCTTACCAGT | 1.1
TCAAGACCTC | 0.991
GTTTTACAAC | 1.04
GTTCTGTGTC | 0.858
TGACACTATA | 1.1
GGACGGTTTC | 1
TCTGAGAAGT | 1.01
CTGTGAGCTT | 1.19
AGGGCGCCTT | 1.08
CAATCGGTTG | 0.981
TCCCGCTACC | 3.48
CGCTGCAAAA | 2.15
TTTTCAGCA | 1.01
CTAGCAGAAA | 0.939
GGCTAGCTTG | 1.01
GTGTGGATGG | 1.02
AGAATCAC | 1.09
TGTACTTTTC | 0.988
TCAACGCCA | 1.5
CGATAAAATT | 1.01
ACTTTTCTT | 1.01
ACTCGTTTGT | 0.969
ACCGCCGTGC | 1.26
TTGAAAGGTA | 0.958

Sequence | switch fluorescence ratio
AATCGGCCGC | 1.02
GCCTGCGACG | 1.07
TCCGGTTAAT | 1.06
AACTAGATGG | 0.973
TCACGTCCGA | 1.02
TAAAGGAGAG | 1.02
GCTCTTTCTA | 1.01
GACGGAAATC | 1.42
GAAATATATG | 1.03
ATAAAAACTT | 0.952
TGGGTGTCAT | 1.02
ATCTAGGGCA | 0.967
AGCGCCGTGC | 1.03
TTATCAGTAC | 1.63
AAATGGACGA | 1.06
AATTTCCAAC | 1.03
GGCATTTCTT | 0.985
CACTCGCGGA | 1.05
CCATGTTCGC | 1.04
TGATCGAGCC | 1.04
TTGCACACAC | 1.54
CGTAGGAGAA | 0.98
GGCTGGGGAC | 0.994
TTAGTATTGT | 0.991
TTTTACCGCG | 1.02

Sequence | switch fluorescence ratio
TGCTACCAGC | 1.03
CGGTTCACAG | 1.01
TGATGCAGCG | 1.05
CAGTCTACTG | 1.02
AGTCAAGGGC | 0.978
GGCCCATTTG | 1.03
ATCACCAGGC | 1.16
AGATGAACTG | 0.913
AAAGGTTATA | 0.975
TTGACGGCGG | 1
GTGTTGAGGG | 0.991
CGCGGGTACG | 1.01
CGAGATTCCG | 0.974
ACGACATCT | 1.12
AGTAATAGCA | 0.99
AGTAATTCTT | 0.977
GGGAGCAAGA | 0.98
TTCTCCCGCC | 2.94
GTCTAAAAGG | 1.05
GGGGCTGCAT | 0.967
AATGGGATC | 1
CCCGTTTCCA | 0.947
TGCTTCTGCG | 1.01
GTCCGTTGTG | 0.992
GGTTACAAAT | 0.939

Sequence | switch fluorescence ratio
GAGTTGCATA | 1
TGGTGTCGGA | 1.13
ACTGCATCGA | 1.03
GGTTGGAGGG | 0.999
TCGTGACTCT | 0.958
TCCCCCTGCT | 1.15
AGAATGGTGG | 1.11
TTATCCCCGG | 1.16
TATTACAGTT | 0.965
GCATGATTTT | 1.01
AATGTCCGCT | 1.41
GTTAGCAAAA | 0.968
TGGAATTGGG | 0.945
GCTCGGAGGC | 1.02
AGTTATAGCG | 0.968
ATCGGAATAG | 1.01
GTGTTCGTCC | 0.999
CTCGCCTATT | 1.05
AGATGCCTCA | 1.01
CGTGGACGTT | 1.02
TTTCATACCG | 0.937
TTGTCCAGGC | 1
AAAGCCTGAG | 1.28
GTTTGCAGTC | 1.03
GGGAGAGCAA | 1.7

Sequence | switch fluorescence ratio
GTAAACTAGA | 0.951
GTCGCTACCC | 1.12
CAAGATTTGG | 1.02
GGACCGTAGT | 0.985
TTGTGTGACC | 0.972
AGCTCTGCAT | 1.39
GCGCACGAAA | 1.24
GGTCTGCGGG | 1
GAAGGTACAT | 0.937
CCATGACGTT | 1.03
GATTTGGTTA | 1.01
TCCATATATC | 1.04
CAATAGCAGT | 1.12
CCGCCCGAGG | 1.06
TTGAAAAGGG | 1.04
CGCGATGGCT | 1.08
GATGAATTTC | 1.03
AGCTATGCAC | 0.994
AGGTTAACGT | 1.02
AGGCGCCATC | 1.01
GGCGTCAAGA | 0.989
CGGTAGAGGA | 0.957
TGGGGCTGTT | 1.04
TGAGTTTAAA | 0.932
AAACGAAAAC | 0.947

Sequence | switch fluorescence ratio
GGCCGGGCTG | 0.981
CTTGTAACAG | 1.04
TGTGGCCGAA | 0.999
CCTACTAAAA | 2.99
TCCGTAATTT | 2.03
ATCCCGCG | 1.12
CATTGTATAC | 1.17
TGATCGATGG | 1.01
AAGCAACGCG | 0.983
CCTTGTTTTA | 1.01
GCAACGCCTA | 0.972
CGGTGGATAA | 1.02
TTTGTGATGC | 1.09
TCTGTCTTG | 1.01
CTGTTCAGTA | 0.993
GCTTCTTGTA | 1.02
CACGGAAGGC | 1.92
GTTTAGACAG | 0.994
ACATACCTGC | 1.43
GGGCGAAAGC | 1.03
AATTATGCTG | 1.03
AGCGATAAAG | 0.986
CGAGTTGGG | 0.956
TACGCCCTC | 1.19
GAAGCAAGGT | 1.63
